Laboratory results from PubChem BioAssay (Tox21).
Several values for one entry are separate records, joined by “and”; a condition that tells them apart may be missing. Equal values may be shown once. The shares of active, inactive and inconclusive entries below differ from those in the screen. A potency beside an inconclusive call is a rough fit, not a confirmed value. Activity calls are given as the source filed them. The call rests on the fitted dose curve; in most records, active means well fitted curve in the direction sought with a large enough effect in the repeat runs; inconclusive means weak or mixed curves; inactive means no such curve, though single readings can be large; an effect the other way counts as inactive or inconclusive.

assay: qHTS RealTime-Glo MT Cell Viability Assay in HEK293 cells - 16 hour (AID 1224872); details: RealTime-Glo luminescence; series mostly up to 76.8 µM; further: nearly all actives have a fitted effect of over 50% in size
Outline: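 Tox21 10K qHTS, HEK293, 600 cells/well, RealTime-Glo reagent co-dispensed with cells; 5 h preincubation, compound by pintool, 37 C, luminescence at 0–40 h.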
On the % scale 0 is the no-effect control and ±100 the full control effect; potency means the concentration at half of the fitted maximal effect; tags describe the fitted curve by direction and shape.

SMILES	Potency
O=c1c(-c2ccc(O)cc2)coc2cc(O)cc(O)c12	inconclusive: 21.5 µM [cytotoxic, partial curve] and active: 21.9 µM and inconclusive: 6.01 µM [cytotoxic, full curve]
COc1cc(N)c(Cl)cc1C(=O)NC1CCN(CCCOc2ccc(F)cc2)CC1OC (stereo not drawn)	active: 2.39 µM
CCCCCCCCS(=O)C(C)Cc1ccc2c(c1)OCO2 (stereo not drawn)	inconclusive: 62.9 µM [cytotoxic, single point]
C=CC(=O)OCCCCCCCC(C)C	inconclusive: 27.5 µM [rising, partial curve]
CCC1(CO)COCOC1	inactive
COC(=O)c1ccccc1	inconclusive: 15.5 µM [cytotoxic, full curve]
COC(=O)c1c(C)cc(O)c(C)c1O	inconclusive: 61.6 µM [cytotoxic, partial curve, poor fit]
CC(C)C(O)(c1ccc(OC(F)(F)F)cc1)c1cncnc1 (stereo not drawn)	inconclusive: 54.7 µM [cytotoxic, partial curve, poor fit]
C=C[C@H]1CN2CC[C@H]1C[C@@H]2[C@@H](O)c1ccnc2ccc(OC)cc12	active: 42.9 µM and inconclusive: 21.3 µM [cytotoxic, partial curve]
CC1=C(C=O)C(C)(C)CCC1	inconclusive: 21.9 µM [rising, single point]
CC(C)(O)c1ccc(CNC(=O)c2cccnc2Oc2ccc3nonc3c2)cc1	inconclusive: 43.6 µM [cytotoxic, partial curve, poor fit]
C=COCC(C)C	inconclusive: 60.1 µM [cytotoxic, single point]

assay: qHTS RealTime-Glo MT Cell Viability Assay in HEK293 cells - 40 hour (AID 1224874); details: RealTime-Glo luminescence; max response: stronger effect = lower value; further: nearly all actives have a fitted effect of over 50% in size
Outline: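 Real-time viability in HEK293: signal arises when living cells convert a prosubstrate for NanoLuc in the medium, so luminescence tracks viable cell number. Compound (23 nL, DMSO) added 5 h post-seeding; kinetic reads at 0–40 h, 37 C.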

SMILES	Potency	max response
O=c1c(-c2ccc(O)cc2)coc2cc(O)cc(O)c12	active: 19.2 µM and active: 19.5 µM and inconclusive: 13.4 µM [cytotoxic, partial curve]	
CCCCCCCCS(=O)C(C)Cc1ccc2c(c1)OCO2 (stereo not drawn)	inconclusive: 56 µM [cytotoxic, single point]	
O=C=Nc1cccc(C(F)(F)F)c1	inconclusive: 54.6 µM [cytotoxic, single point]	
COC(=O)c1c(C)cc(O)c(C)c1O	inconclusive: 61.6 µM [cytotoxic, single point]	
Clc1nc2ccccc2nc1Cl	inconclusive: 17.6 µM [rising, partial curve, poor fit]	
CCOc1ccc2[nH]cc(C(=O)NCc3ccccc3)c(=O)c2n1		inactive: -23.2%
CCCCCCCC/C=C\CCCCCCCCCCCC(=O)O	inconclusive: 28 µM [rising, partial curve, poor fit]	
CC(C)C(O)(c1ccc(OC(F)(F)F)cc1)c1cncnc1 (stereo not drawn)	inconclusive: 48.8 µM [cytotoxic, partial curve]	
C=C[C@H]1CN2CC[C@H]1C[C@@H]2[C@@H](O)c1ccnc2ccc(OC)cc12	inconclusive: 26.8 µM [cytotoxic, single point]	
CC(CN(C)C)CN1c2ccccc2CCc2ccccc21 (stereo not drawn)	inconclusive: 19 µM [cytotoxic, partial curve]	
CCN(CC)CCCN(c1ccccc1)C1Cc2ccccc2C1	inconclusive: 19 µM [cytotoxic, partial curve]	
CN(C)CCOc1ccccc1Cc1ccccc1	inconclusive: 26.8 µM [cytotoxic, partial curve, poor fit]	
CC1=C(C=O)C(C)(C)CCC1	inconclusive: 21.9 µM [rising, single point]	
CCN(CC)CCOC(=O)C(Cc1cccc2ccccc12)CC1CCCO1 (stereo not drawn)	inconclusive: 16.9 µM [cytotoxic, partial curve]	
CC(C)(O)c1ccc(CNC(=O)c2cccnc2Oc2ccc3nonc3c2)cc1	inconclusive: 43.6 µM [cytotoxic, partial curve]	
C=COCC(C)C	inconclusive: 60.1 µM [cytotoxic, single point]	

assay: A CellTox Green Cytotoxicity Assay to monitor cytotoxicity in HEK293 cells - 24 hour (AID 1224875); details: CellTox Green fluorescence; series mostly up to 76.8 µM; further: nearly all actives have a fitted effect of over 45% in size
Outline: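 Cells (HEK293, 600/well) and dye reagent are dispensed together. After 5 h at 37 C, 23 nL compound is pinned in. Plates stay at 37 C for 40 h with fluorescence read at 0h, 8h, 16h, 24h, 32h and 40h.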

SMILES	Potency
CCCCCCCCS(=O)C(C)Cc1ccc2c(c1)OCO2 (stereo not drawn)	inactive
O=C=Nc1cccc(C(F)(F)F)c1	inconclusive: 54.6 µM [activator, single point]
NCCO	inconclusive: 13.8 µM [activator, partial curve]
O=C1CC2CC1C1CCCC21 (stereo not drawn)	inconclusive: 54.9 µM [activator, single point]
CC1=C(C=O)C(C)(C)CCC1	inconclusive: 21.9 µM [activator, single point]

assay: A CellTox Green Cytotoxicity Assay to monitor cytotoxicity in HepG2 cells - 16 hour (AID 1224876); details: CellTox Green fluorescence; series mostly up to 76.8 µM; further: nearly all actives have a fitted effect of over 45% in size
Outline: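 Cells and non-lytic dye reagent are dispensed together (600 HepG2 cells/well) and incubated 5 h before DMSO compound transfer. Kinetic fluorescence is then recorded in the same wells during 40 h at 37 C.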

SMILES	Potency
COc1cc(N)c(Cl)cc1C(=O)NC1CCN(CCCOc2ccc(F)cc2)CC1OC (stereo not drawn)	inactive
CC(CN(C)C)CN1c2ccccc2CCc2ccccc21 (stereo not drawn)	inconclusive: 26.8 µM [activator, single point]
CCN(CC)CCCN(c1ccccc1)C1Cc2ccccc2C1	inconclusive: 21.3 µM [activator, partial curve]
CN(C)CCOc1ccccc1Cc1ccccc1	inconclusive: 26.8 µM [activator, single point]
CCN(CC)CCOC(=O)C(Cc1cccc2ccccc12)CC1CCCO1 (stereo not drawn)	inconclusive: 10.7 µM [activator, single point]
